What was measured:
Assay in all cases: Comparative aerobic culture on Schaedler 0.2% agar (Table 2)
Settings in all cases: 37° C., AA 1 g/L, UA 400 mg/L
[1] = tested on: Peptoniphilus harei
[2] = tested on: Campylobacter ureolyticus
[3] = tested on: Clostridium glycolicum
[4] = tested on: Finegoldia magna

O=c1[nH]c(=O)c2[nH]c(=O)[nH]c2[nH]1 [uric acid, 7,9-dihydro-1H-purine-2,6,8(3H)-trione]
colonies detected with the naked eye at t=96 h [1]: 0 | colonies detected with the naked eye at t=96 h [2]: 0 | colonies detected with the naked eye at t=96 h [3]: Positive | colonies detected with the naked eye at t=96 h [4]: 0

O=C1O[C@H]([C@@H](O)CO)C(O)=C1O [ascorbic acid, reference compound]
colonies detected with the naked eye at t=96 h [1]: 0 | colonies detected with the naked eye at t=96 h [2]: 0 | colonies detected with the naked eye at t=96 h [3]: 0 | colonies detected with the naked eye at t=96 h [4]: 0

Source: patent US10626421B2, “Use of uric acid for culturing bacteria sensitive to oxygen tension” (FONDATION MEDITERRANEE INFECTION, priority 2014, dated 2020)
